Results as given in PubChem BioAssay AID1347417 (National Center for Advancing Translational Sciences (NCATS), 2020).
Out of some 120,000 compounds screened, about 5,300 (4.4%) were called active. The shares of active, inactive and inconclusive entries below differ from those in the screen. The call rests on the fitted dose curve; in most records, active means well fitted inhibition curve with a large enough effect; inconclusive means small, poorly fitted or top-dose-only effect; inactive means no such curve, though single readings can be large or run the other way. A potency beside an inconclusive call is a rough fit, not a confirmed value.

Assay: qHTS Primary assay for Inhibitors of Plasmodium falciparum Dd2 growth in vitro; further: nearly all actives have a fitted effect of over 65% in size;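 on activity, negative = inhibition: plate controls were DMSO vehicle for no effect and reference drug for full effect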
Settings: P. falciparum Dd2 growth, SYBR Green, 72 h; activity, negative = inhibition: at 28.9 µM (top of the series) unless noted; series mostly up to 28.9 µM
Procedure, shortened: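 Infected erythrocytes (Dd2, 0.3% parasitemia, 2.5% hematocrit final) are added to compound in RPMI-1640/Albumax II medium, grown 72 h at 37C in low oxygen, then lysed with saponin/Triton-X containing SYBR Green and read by fluorescence.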
Potency means the concentration at half of the fitted maximal effect; tags describe the fitted curve by direction and shape.

Structure (SMILES)	activity, negative = inhibition	Potency	outcome
O=C(Nc1ccc(Cl)cc1Cl)c1cn2c(n1)CN(C(=O)c1ccccc1F)CC2	inconclusive: -93.1% [inhibitor]	–	–
Cc1cccc(Cn2c(C)c(C)c3cc(C(=O)NCc4ccc(C)o4)ccc32)c1	–	inconclusive: 12.6 µM [inhibitor, single point]	–
Cc1cc(NC(=O)CN(C)S(=O)(=O)c2ccc3c(c2)CCC(=O)N3)ccc1Br	–	inconclusive: 3.98 µM [inhibitor, single point]	–
O=C(NC1CC1)c1cc(C2CC2)nc2c1c(C1CCCN1)nn2-c1ccccc1 (configuration not stated)	–	inconclusive: 15.8 µM [inhibitor, single point]	–
Cc1cc(N2CCN(Cc3ccc(F)c(F)c3)C(CCO)C2)nc(N)n1 (configuration not stated)	–	inconclusive: 17.8 µM [inhibitor, single point]	–
O=C(C1CCCCC1)N(Cc1cccnc1)c1nc2ccc(F)cc2s1	–	inconclusive: 17.8 µM [inhibitor, single point]	–
O=C(CN1CCCC1=O)N1CCC(N2CC(OCC3CC3)C23CCCCC3)CC1 (configuration not stated)	–	inconclusive: 11.2 µM [inhibitor, partial curve]	–
CCc1nnc(NC(=O)CSc2nc3c([nH]c4ccccc43)c(=O)n2-c2ccc(OC)cc2)s1	–	inconclusive: 10 µM [inhibitor, partial curve]	–
CCN1CCN(C(=O)CC2CCCN(c3cnn(CC4CC4)c(=O)c3)C2)CC1 (configuration not stated)	–	inconclusive: 17.8 µM [inhibitor, single point]	–
COC(=O)C1=C(C)N=C2SC=C(CC(=O)NCc3cccc(F)c3)N2C1c1ccccc1 (configuration not stated)	–	inconclusive: 2.51 µM [inhibitor, partial curve, poor fit]	–
O=C(C1CC1)N1CCCC(N2CCN(c3cccc(C(F)(F)F)c3)CC2)C1 (configuration not stated)	inconclusive: -34.1% [inhibitor]	–	–
CCOC(=O)N1CCc2c(sc3c2c(=O)n(-c2ccc(CC)cc2)c(=O)n3Cc2cc(C)ccc2C)C1	–	inconclusive: 1.41 µM [inhibitor, single point]	–
COCCCNc1ncnc2sc3c(c12)CCN(Cc1cccnc1)C3	–	active: 5.01 µM	–
CCOC(=O)N1CCC(NC(=O)c2ccc3c(c2)N(Cc2ccc(Cl)cc2)C(=O)c2ccccc2S3=O)CC1 (configuration not stated)	–	inconclusive: 10 µM [inhibitor, single point]	–
CN(C)CCN(C)C[C@H]1CN2CC[C@H]1C[C@@H]2CNC(=O)Nc1ccsc1	inactive: 15.7% [at 44.1 µM]	–	–
O=C(CSc1nc2ccccc2nc1Cc1ccccc1)N1CCCc2ccccc21	–	inconclusive: 10 µM [inhibitor, single point]	–
COc1ccc(CNC(=O)CN2C(=O)NC3(CCC(C(C)(C)C)CC3)C2=O)cc1OC (configuration not stated)	–	inconclusive: 6.31 µM [inhibitor, partial curve, poor fit]	–
Cc1ccc(NC(=O)N2CCC(Oc3ncccc3C(=O)N3CCOCC3)C2)c(C)c1 (configuration not stated)	inactive: 5.79%	–	–
CCOC(=O)c1cccc(NC(=O)c2sc3nc[nH]c(=O)c3c2C)c1	inactive: 6.35%	–	–
Cc1cc2nc3n(c(=O)c2n1CC(=O)Nc1ccc2c(c1)OCO2)CCCC3	–	inconclusive: 7.94 µM [inhibitor, partial curve, poor fit]	–
COc1cccc(C(=O)NCCC2CCN(C(=O)Nc3cccc(C)c3)CC2)c1	–	–	inactive

Structure (SMILES)	activity, negative = inhibition	Potency	outcome
COc1ccc(C(=O)N2CCCC(c3[nH]ccc3C(N)=O)C2)cc1F (configuration not stated)	inactive: 20.3%	–	–
COC(=O)c1ccc2nc(CO[C@H]3CN(Cc4ccccc4)C[C@H]3F)[nH]c2c1	–	inconclusive: 10 µM [inhibitor, partial curve, poor fit]	–
CN1CC(=O)N(C2CCCNC2)Cc2c1ncnc2N1CCN(c2ncccn2)CC1 (configuration not stated)	inactive: 5.89%	–	–
COc1ccc(OC)c(NC(=O)c2cc3cc4ccc(C)cc4nc3s2)c1	inactive: 9.34%	–	–
Cc1nn(-c2ccccc2)nc1C(=O)N[C@H](C)c1onc(C)c1C(=O)O	–	–	inactive [at 44.1 µM]
CCN1CCN(C(=O)c2cc(-c3ccc(C)cc3)cn2CC)CC1	–	inconclusive: 20 µM [inhibitor, single point]	–
Cc1nc2c(c(-c3ccc(O)cc3)n1)CN(C(=O)C1CCCC1)CCC2	inactive: -10.9%	–	–
Cc1ccccc1C(=O)N1CCC2(CC1)N(c1ccccc1)C(=O)CS2(=O)=O	–	inconclusive: 0.316 µM [inhibitor, full curve, poor fit]	–
Cc1cnc(CN2CC3(CCC2=O)CCN(C(=O)[C@H]2C[C@@H]4C=C[C@H]2C4)CC3)cn1	–	inconclusive: 3.98 µM [inhibitor, single point]	–
COCC1CN(C2CCC2)CC12CCN(C(=O)C1CCC1)CC2 (configuration not stated)	–	inconclusive: 10 µM [inhibitor, single point]	–
O=C1NCCCCCCN(CC2CCCCC2)[C@H]2CCC[C@@H]12	–	inconclusive: 3.98 µM [inhibitor, partial curve, poor fit]	–
O=C(c1ccc(N2CC3CC(C2)[C@H]2CCCC(=O)N2C3)nc1)N1CCN(c2ccc(Cl)cc2)CC1 (some centres not stated)	–	inconclusive: 2.51 µM [inhibitor, full curve, poor fit]	–
Cc1ccnn1CC(=O)N1CCOc2c(O)cc(-c3cccc(Cl)c3)cc2C1	–	inconclusive: 10 µM [inhibitor, partial curve]	–
O=C1NCCC[C@@H]1NC(=O)[C@H]1CN(C(=O)c2ccccc2)CCN1S(=O)(=O)c1ccc(F)cc1	inactive: 24.9%	–	–
Cc1ccc(C)c(Cn2cnc3ccccc3c2=O)c1	–	inconclusive: 10 µM [inhibitor, single point]	–
O=C(NCc1ccccn1)c1nn(-c2ccccc2F)nc1CO	–	–	inactive
CCOc1ccccc1CN1CCc2nc(Nc3ccccc3)ncc2C1	–	inconclusive: 7.08 µM [inhibitor, partial curve]	–
CC(=O)Nc1cccc(OCc2nnc(C(=O)N3CCC[C@@H]3C(c3ccccc3)c3ccccc3)n2-c2ccccc2)c1	–	inconclusive: 1.58 µM [inhibitor, full curve, poor fit]	–
C#CCNC(=O)C1CCc2nnc(CNC(=O)Nc3cccnc3)n21 (configuration not stated)	inactive: 16.5%	–	–
CC(C)(Oc1nn(Cc2cccc(Cl)c2)c2ccccc12)C(=O)NC1CCOCC1	inactive: -20.5% [at 44.1 µM]	–	–
COc1cccc([S+](=O)([O-])N2CCCC3(C2)C(=NC2CCCCC2)NC(=O)N3c2cccnc2)c1 (configuration not stated)	–	inactive	–
